Results: the supplement of paper PMC4967469

Compound: CCOc1cc2ncc(C#N)c(Nc3ccc(F)c(Cl)c3)c2cc1NC(=O)/C=C/CN(C)C [EKB-569]
Experiment: Viability of human cancer cell lines after 72 h of drug (GDSC screen)
Settings: top dose inferred
Description: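 Human cancer cell lines in 384-well plates, medium with 10% serum, drug for 72 h over a 256-fold dose range (nine 2-fold or five 4-fold steps up to the top dose). Adherent lines were fixed and stained with the nucleic acid dye Syto60, suspension lines read with resazurin; signal relative to control wells, capped at 0 and 100%. One two-parameter sigmoid per drug and line, fitted in a mixed model over all curves with the slope shared within a line.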

Row | Cell Line | AUC | IC50
1 | NCI-H1435 (lung adenocarcinoma, semi-adherent, top dose 2.5 µM) | 0.993 | > 2500 nM
2 | NCI-H1436 (small cell lung carcinoma, suspension, top dose 2.5 µM) | 0.976 | > 2500 nM
3 | NCI-H1437 (lung adenocarcinoma, adherent, top dose 2.5 µM) | 0.946 | > 2500 nM
4 | NCI-H1563 (lung adenocarcinoma, adherent, top dose 2.5 µM) | 0.807 | 1590 nM
5 | NCI-H1568 (lung adenocarcinoma, adherent, top dose 2.5 µM) | 0.831 | 2160 nM
6 | NCI-H1573 (lung adenocarcinoma, adherent, top dose 2.5 µM) | 0.982 | > 2500 nM
7 | NCI-H1581 (large cell lung carcinoma, semi-adherent, top dose 2.5 µM) | 0.986 | > 2500 nM
8 | NCI-H1623 (lung adenocarcinoma, adherent, top dose 2.5 µM) | 0.955 | > 2500 nM
9 | NCI-H1648 (lung adenocarcinoma, adherent, top dose 20 µM) | 0.595 | 2320 nM
10 | NCI-H1651 (lung adenocarcinoma, adherent, top dose 2.5 µM) | 0.985 | > 2500 nM
11 | NCI-H1666 (lung adenocarcinoma, semi-adherent, top dose 20 µM) | 0.835 | 14900 nM
12 | NCI-H1688 (small cell lung carcinoma, adherent, top dose 2.5 µM) | 0.972 | > 2500 nM
13 | NCI-H1693 (lung adenocarcinoma, adherent, top dose 20 µM) | 0.732 | 8730 nM
14 | NCI-H1694 (small cell lung carcinoma, suspension, top dose 2.5 µM) | 0.926 | > 2500 nM
15 | NCI-H1703 (lung adenocarcinoma, adherent, top dose 2.5 µM) | 0.786 | 1340 nM
16 | NCI-H1734 (lung adenocarcinoma, adherent, top dose 20 µM) | 0.791 | 9970 nM
17 | NCI-H1755 (lung adenocarcinoma, adherent, top dose 2.5 µM) | 0.561 | 235 nM
18 | NCI-H1770 (non-small cell lung carcinoma, suspension, top dose 2.5 µM) | 0.992 | > 2500 nM
19 | NCI-H1781 (lung adenocarcinoma, adherent, top dose 2.5 µM) | 0.449 | 113 nM
20 | NCI-H1792 (lung adenocarcinoma, adherent, top dose 2.5 µM) | 0.903 | > 2500 nM
21 | NCI-H1793 (lung adenocarcinoma, adherent, top dose 2.5 µM) | 0.968 | > 2500 nM
22 | NCI-H1836 (small cell lung carcinoma, suspension, top dose 2.5 µM) | 0.985 | > 2500 nM
23 | NCI-H1838 (lung adenocarcinoma, adherent, top dose 2.5 µM) | 0.977 | > 2500 nM
24 | NCI-H1869 (lung squamous cell carcinoma, adherent, top dose 2.5 µM) | 0.817 | 1630 nM
25 | NCI-H1876 (small cell lung carcinoma, adherent, top dose 2.5 µM) | 0.954 | > 2500 nM

Row | Cell Line | AUC | IC50
26 | NCI-H1915 (large cell lung carcinoma, adherent, top dose 2.5 µM) | 0.926 | > 2500 nM
27 | NCI-H1944 (lung adenocarcinoma, adherent, top dose 2.5 µM) | 0.823 | 1600 nM
28 | NCI-H1993 (lung adenocarcinoma, adherent, top dose 2.5 µM) | 0.849 | > 2500 nM
29 | NCI-H2009 (lung adenocarcinoma, adherent, top dose 2.5 µM) | 0.977 | > 2500 nM
30 | NCI-H2023 (lung adenocarcinoma, adherent, top dose 2.5 µM) | 0.98 | > 2500 nM
31 | NCI-H2029 (small cell lung carcinoma, adherent, top dose 2.5 µM) | 0.992 | > 2500 nM
32 | NCI-H2030 (lung adenocarcinoma, adherent, top dose 2.5 µM) | 0.767 | 1050 nM
33 | NCI-H2052 (mesothelioma, adherent, top dose 2.5 µM) | 0.957 | > 2500 nM
34 | NCI-H2081 (small cell lung carcinoma, suspension, top dose 2.5 µM) | 0.977 | > 2500 nM
35 | NCI-H2085 (lung adenocarcinoma, adherent, top dose 2.5 µM) | 0.845 | 2030 nM
36 | NCI-H2087 (lung adenocarcinoma, semi-adherent, top dose 20 µM) | 0.665 | 3730 nM
37 | NCI-H2110 (non-small cell lung carcinoma, adherent, top dose 2.5 µM) | 0.887 | > 2500 nM
38 | NCI-H2122 (lung adenocarcinoma, adherent, top dose 20 µM) | 0.89 | > 20000 nM
39 | NCI-H2135 (non-small cell lung carcinoma, adherent, top dose 2.5 µM) | 0.94 | > 2500 nM
40 | NCI-H2141 (small cell lung carcinoma, suspension, top dose 2.5 µM) | 0.989 | > 2500 nM
41 | NCI-H2170 (lung squamous cell carcinoma, adherent, top dose 2.5 µM) | 0.918 | > 2500 nM
42 | NCI-H2171 (small cell lung carcinoma, suspension, top dose 2.5 µM) | 0.946 | > 2500 nM
43 | NCI-H2172 (non-small cell lung carcinoma, adherent, top dose 2.5 µM) | 0.958 | > 2500 nM
44 | NCI-H2196 (small cell lung carcinoma, adherent, top dose 2.5 µM) | 0.972 | > 2500 nM
45 | NCI-H2227 (small cell lung carcinoma, semi-adherent, top dose 2.5 µM) | 0.977 | > 2500 nM
46 | NCI-H2228 (lung adenocarcinoma, adherent, top dose 2.5 µM) | 0.92 | > 2500 nM
47 | NCI-H2291 (lung adenocarcinoma, adherent, top dose 2.5 µM) | 0.976 | > 2500 nM
48 | NCI-H2342 (lung adenocarcinoma, adherent, top dose 2.5 µM) | 0.969 | > 2500 nM
49 | NCI-H2347 (lung adenocarcinoma, adherent, top dose 2.5 µM) | 0.942 | > 2500 nM
50 | NCI-H2405 (lung adenocarcinoma, adherent, top dose 2.5 µM) | 0.915 | > 2500 nM

Row | Cell Line | AUC | IC50
51 | NCI-H2444 (non-small cell lung carcinoma, adherent, top dose 2.5 µM) | 0.988 | > 2500 nM
52 | NCI-H2452 (mesothelioma, adherent, top dose 2.5 µM) | 0.984 | > 2500 nM
53 | NCI-H3122 (lung adenocarcinoma, adherent, top dose 2.5 µM) | 0.899 | > 2500 nM
54 | NCI-SNU-1 (stomach, suspension, top dose 2.5 µM) | 0.85 | 2000 nM
55 | NCI-SNU-5 (stomach, suspension, top dose 2.5 µM) | 0.989 | > 2500 nM
56 | NCI-SNU-16 (stomach, suspension, top dose 2.5 µM) | 0.991 | > 2500 nM
57 | NEC8 (testis, adherent, top dose 2.5 µM) | 0.988 | > 2500 nM
58 | NH-12 (neuroblastoma, adherent, top dose 2.5 µM) | 0.938 | > 2500 nM
59 | NKM-1 (acute myeloid leukaemia, suspension, top dose 2.5 µM) | 0.698 | 572 nM
60 | NMC-G1 (glioma, adherent, top dose 2.5 µM) | 0.854 | > 2500 nM
61 | NOMO-1 (acute myeloid leukaemia, suspension, top dose 2.5 µM) | 0.783 | 1200 nM
62 | NOS-1 (osteosarcoma, adherent, top dose 2.5 µM) | 0.285 | 32.9 nM
63 | NTERA-2 cl.D1 (testis, adherent, top dose 2.5 µM) | 0.943 | > 2500 nM
64 | NU-DUL-1 (B-cell lymphoma, suspension, top dose 2.5 µM) | 0.802 | 957 nM
65 | NUGC-3 (stomach, adherent, top dose 2.5 µM) | 0.897 | > 2500 nM
66 | NUGC-4 (stomach, adherent, top dose 2.5 µM) | 0.895 | > 2500 nM
67 | NY (osteosarcoma, adherent, top dose 2.5 µM) | 0.979 | > 2500 nM
68 | OACM5-1 (oesophagus, semi-adherent, top dose 2.5 µM) | 0.953 | > 2500 nM
69 | OACp4C (oesophagus, adherent, top dose 2.5 µM) | 0.583 | 276 nM
70 | OAW-28 (ovary, adherent, top dose 2.5 µM) | 0.862 | > 2500 nM
71 | OAW-42 (ovary, adherent, top dose 2.5 µM) | 0.934 | > 2500 nM
72 | OC-314 (ovary, adherent, top dose 2.5 µM) | 0.882 | 1990 nM
73 | OCI-AML2 (acute myeloid leukaemia, suspension, top dose 2.5 µM) | 0.986 | > 2500 nM

The IC50 comes from the fitted curve, where viability falls to half of the control; a fit beyond the top or the lowest dose is shown as a bound at that dose. AUC, from the same fit, is the share of area under the viability curve across the 256-fold dose range; it is 1 without any effect and falls as sensitivity rises. An inferred top dose was calculated from the reported fits.
